# Data from publication PMC12136788.
# The list shows a part of the results.
# T1: UNK ZnF1-3 (human, UniProt Q9C0B0 31-174)
# T1 sequence: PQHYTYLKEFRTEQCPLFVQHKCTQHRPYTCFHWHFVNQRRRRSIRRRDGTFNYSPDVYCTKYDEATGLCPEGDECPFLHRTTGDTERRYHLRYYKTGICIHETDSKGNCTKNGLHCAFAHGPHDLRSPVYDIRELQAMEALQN
# B1: chr4:57314706:57314707:+_ENSG00000128050_ENST00000264221|hu_mus|hu_hu_hu_mus_True|98_98 (ssRNA)
# RNA: GGGAGUUCUACAGUCCGACGAUCCAGAAUUUCAAAAAUAGCCUGUGUGGCAUGACUCAUGAUGUCCACUUCAGUCUGCCCUAUAACAAGGCCAGCAAAACAGAAUUUUGCAGCAAUGAGUUGCUCCUCAGACCACUGUGGAUCCAACAGAGGAUUGAGCAUCA
# B2: chrX:77155053:77155054:+_ENSG00000131174_ENST00000481445|hu_mus|FALSE|FALSE (ssRNA)
# RNA: GGGAGUUCUACAGUCCGACGAUCCGAACUUGGAGACGGCUUAGUGCGUUUUUGGCUAAGGGCAACAUCGCGGAGACGAAGAUGGAACUGCGGCGACUAUGCUGCUGCCUUGGUGCAAAUUCACCCCAGCUACCCUUGCAAAGCCAACAGAGGAUUGAGCAUCA
# B3: 76477308_76478351_561_CDS_ENSMUSG00000002731_ENSMUST00000002808|mouse|control|control (ssRNA)
# RNA: GGGAGUUCUACAGUCCGACGAUCAGCCGGUCCUCCUUCCUGGGAAAGGGUAUAUUCAGGAAGUCGCCAGCCAUGGUGAAUUGCUAAUUCCUGUAAUGAGCCAAUUGGAUUCAGCUGGUUCUUCGGCUGUUUGGAUGGAUCAGGCAACAGAGGAUUGAGCAUCA
# B4: chr3:119236079:119236080:+_ENSG00000113845_ENST00000264244|hu_mus|FALSE|FALSE (ssRNA)
# RNA: GGGAGUUCUACAGUCCGACGAUCGGCCUUCCAUUCCUUCUGCCUUCUCUCCUGAACCGUCUCACCGGAGUACUUCUCCAGGGCCAUCAGCAAGCUUCCCAUGGGCGCGCCCAACAACGCUCCAAUUAUACUACCAGCCACCAGCAACAGAGGAUUGAGCAUCA
# B5: chr5:37310712:37310713:-_ENSG00000113569_ENST00000381843|hu_hu|FALSE|FALSE (ssRNA)
# RNA: GGGAGUUCUACAGUCCGACGAUCACAAAUUGCAUCAUCAGUGCUAUAUAGAAGUGGGCAGAUAUCCUGUAAAUGUAAACUAAUGCCAUCAACAGCGGCAUUAUCUCUGAUGUAGCAGUUGAUAAGAGAAGCAAUUAAUGCCCCCAACAGAGGAUUGAGCAUCA
# B6: 100481045_100481165_377_5pUTR_ENSMUSG00000014195_ENSMUST00000014339|mouse|control|control (ssRNA)
# RNA: GGGAGUUCUACAGUCCGACGAUCUCCGCUUGGGGCCAGAGCGGCCUUCCAUCCCUGGAGGUCCACGGUGGUCUCCGCGCUGGGGCGGGGGCCCAGGGACGGUUCCUGUGCGUAGGGGGCGCCACUUUACCCGUGAAUAGGAGGCAACAGAGGAUUGAGCAUCA
# B7: 84442072_84442192_1816_CDS_ENSMUSG00000036766_ENSMUST00000049126|mouse|control|control (ssRNA)
# RNA: GGGAGUUCUACAGUCCGACGAUCUGUGAAGCCUGGGCUGCAGCUGCAGGUGAAAUGCACGCCAUCCACGUAGCAAGUGCCAUUGUUCUGGCAUGGAGAGGACAUGCAAGGGUCCACCUUCUCUUCACAAGCGGAGCCGAAGUACAACAGAGGAUUGAGCAUCA
# B8: 102340991_102341111_3048_CDS_ENSMUSG00000034621_ENSMUST00000143842|mouse|control|control (ssRNA)
# RNA: GGGAGUUCUACAGUCCGACGAUCCUUUCUGGAGCCUGAUCUCUGAGAAGGGCUCCUGGUGCUGCGGCUCCGGUCCCGGCUAUAGCUUCGGCUUCGCUGCCAGCUGUGGGCUGUGGUGCUGCGACUUCUCCUCUUGCUUCGACUCAACAGAGGAUUGAGCAUCA
# B9: chrX:71549400:71549401:+_ENSMUSG00000019087_ENSMUST00000019231|mus_hu|mus_mus_mus_hu_False|18_58 (ssRNA)
# RNA: GGGAGUUCUACAGUCCGACGAUCGCAGUAGGAAGAGGGAAGCUCUUCAGUCCAGUGCGCUGCAGGGUGGGAAAGCACAACCUAGACCACCGUCCCACCCUCAACCCCCCCACUGGCAUGUCACACAACAAUCUGGGUCAAAGACAACAGAGGAUUGAGCAUCA
# B10: chr19:29217640:29217641:+_ENSMUSG00000024785_ENSMUST00000064393|mus_hu|FALSE|FALSE (ssRNA)
# RNA: GGGAGUUCUACAGUCCGACGAUCCUUGGUUUCAAUUUUAAACAUAAUCUGGAAAAAGCUCUUCAAAUGCCGCAAAAAUUCUAUCGUGUAGGGAGAGAGAGGGCCUAGCAGGACUUUGGAAACAUCCUGCUGUCCAAGGGUCAUCAACAGAGGAUUGAGCAUCA
# B11: chr8:117878989:117878990:-_ENSG00000164754_ENST00000297338|hu_hu|hu_hu_hu_mus_True|1_28 (ssRNA)
# RNA: GGGAGUUCUACAGUCCGACGAUCCCAGAGGCCCUCGUUUACUGAGGACAAAAUGUGCGUAGAACAUUUUUCUUAUUUGCUAUGAAAUAAGAAGAAACCUGGAUCUCCCGCUGGGAGCGGGAGGGGUGGGUGGCCCGGGGGAGGCAACAGAGGAUUGAGCAUCA
# B12: chr16:46990514:46990515:-_ENSG00000069345_ENST00000317089|hu_hu|FALSE|FALSE (ssRNA)
# RNA: GGGAGUUCUACAGUCCGACGAUCAACCCAUUGUGUGCAAAGCCCAUUUUUUUCCAUGCAUCUAAAUGAUAGAUACAGGCUAUGAAAUUCUUUAUUCUAUUUGUAGCAGCUUAUGCAGGUGCAGCCAAACACAAAGCUUCAGGACAACAGAGGAUUGAGCAUCA
# B13: chr20:32246340:32246341:-_ENSG00000125967_ENST00000246190|hu_mus|motif|central (ssRNA)
# RNA: GGGAGUUCUACAGUCCGACGAUCUCUCCAGGAGGCUUCAUCCUGCCAGAACUCAUACAGGGUGAAAGCAGCAUUGUCGGGCAUCUUCUGGGCAGACACAUGCAGACAAUGGCUUUGGGCCCCUGUGAAGUUCAUGUAGCAGCACAACAGAGGAUUGAGCAUCA
# B14: 88635751_88649847_573_CDS_ENSG00000107779_ENST00000372037|human|control|control (ssRNA)
# RNA: GGGAGUUCUACAGUCCGACGAUCGCCAUGAAGCAUACUAUCCAGAUUCUGUCCUUGAACACGAGAAAUGAUGAACAAAUAGGCUCCCAAUAAUCUGAUGUAAAUGUAUAGCUGAGGCAUUGUUCAAUUGUAAUGUUUCCUGUGCAACAGAGGAUUGAGCAUCA
# Target: T1, UNK ZnF1-3
# Assay: nsRBNS (natural sequence RNA bind-n-seq); RBNS binding buffer (assumed for nsRBNS): 25 mM Tris pH 7.5, 150 mM KCl, 3 mM MgCl2, 0.01% Triton X-100, 500 ug/ml BSA, 20 U/ml SUPERase-In, 4 C; UNK is unkempt and MSI1 is Musashi-1; names of the RNAs are library labels; protein concentration not given here; high values mean tight binding
row,Binder,binding signal
1,B1,0.888 enrichment R
2,B2,0.92 enrichment R
3,B3,0.806 enrichment R
4,B4,1.24 enrichment R
5,B5,1.29 enrichment R
6,B6,0.549 enrichment R
7,B7,0.924 enrichment R
8,B8,0.456 enrichment R
9,B9,1.33 enrichment R
10,B10,1.61 enrichment R
11,B11,1.82 enrichment R
12,B12,1.25 enrichment R
13,B13,0.687 enrichment R
14,B14,1.38 enrichment R
